Laboratory results published in the supplement of paper PMC11417369.
± gives the standard deviation of the averaged measurements. This is one part of the list.

Tested on: PfAP2-G AP2 domain (GST-tagged)
Test: gcPBM binding intensity (ln(normalized median fluorescence intensity)); higher = stronger DNA binding
Summary of the method: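 An Agilent 4 × 180k array carrying primer-extended double-stranded 36-bp intergenic genomic probes and negative controls received GST-tagged P. falciparum DNA-binding domains expressed in E. coli, about 25 μg on average, for 1 h. The binding buffer contained 1× PBS, 1% milk, 0.2 mg/ml BSA, 0.5% salmon testes DNA and 0.03% Triton X-100. Binding intensity is the top Masliner-normalised natural-log median intensity across replicate spots of either probe orientation, read after Alexa488 anti-GST antibody staining and a 488 nm scan.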

Sequence	gcPBM binding intensity (ln)
ATTTATACAAAGCTTCGTACATAATGTATTCTTTTT [XGTACX_site2166]	10.8 ± 0.41
TTTTAATTGTTTATTTGTACATATGTTTAATTATAT [XGTACX_site571]	10.9 ± 0.44
AATAAATAAATAAATTAATATATATATATATATAGA [CACACA_negctrl_site1661]	9.39 ± 0.14
AAAGGGTTACAAGAGGAACACACAAAAAAATAAATA [CACACA_site8406]	10.3 ± 0.23
TTGTATCTTCATTTTATCAGAAAAAAAAAAAAAAAT [CACACA_negctrl_site775]	9.96 ± 0.4
ATATATATATATAGGGGTACTTAAATTTTACTAACC [XGTACX_site1832]	11.4 ± 0.93
ATTTTATTTATATACACACACATATATATATTATAT [CACACA_site822]	10.1 ± 0.16
AAATAAATAAATATACGTACATATATATAATATATA [XGTACX_site5124]	11.3 ± 0.77
TTTTTTTTGATTTGTTTGCACTTATTTCCACAATAA	10.3 ± 0.2
TTTTTTTTTAATTACATAAAATAAAAATATTTCTAT [CACACA_negctrl_site584]	9.695 ± 0.021
TTAATATGTTTAACCATTTTACATAAATTGATTTGT [CACACA_negctrl_site1100]	10 ± 0.17
TACGTAAATTTTAATACACACTATAGGATATTCTGC [CACACA_site5418]	9.895 ± 0.007
TTTTGCGAAAAAAGGTGTACTGTAAATATATTGAGG [XGTACX_site8941]	11.6 ± 0.95
AGCACCCACCAACACACACACACACCCACCCACCGA [CACACA_site368]	10.3 ± 0.28
TATATATATACATACGTACACACAAATATTAAAATA [CACACA_site1950]	11.8 ± 1.2
TAAAAAAAATAGAAACGTACATAAAAAATAAATAAT [XGTACX_site5796]	11.3 ± 0.6
TATATATTTATATTTACACACAGTTACTATGTAGAT [CACACA_site3292]	9.98 ± 0.19
ATTAAATGATCAAGGTGTACATTAACAAGAACTATA [XGTACX_site7022]	11.5 ± 0.91
TGAATAAAAAAACCTAGTACTTAAATAAGTATATTT [XGTACX_site7690]	10.8 ± 0.43

Sequence	gcPBM binding intensity (ln)
TCATATAAAACATGCACACATATGTACTCTTATAAA [CACACA_site3748]	11.3 ± 0.7
TTTATTAATGGACACACACACACACCCAAAATAAAA [CACACA_site4294]	11 ± 0.77
TATATTTATATATGTTGTACTCTCCAATAATATTCC [XGTACX_site4438]	11.2 ± 0.82
CTCCACAAACAAATCGCACACCCAACCCAACATATA [CACACA_site2650]	10.2 ± 0.13
TATTATAATGACTATAGTACATAATATTATTTATAT [XGTACX_site1977]	10.7 ± 0.5
ATAGAACTGAATAAATCTATAAATAAATATATATAT [GTGCAC_negctrl_site604]	9.545 ± 0.092
TCATACCTACATAAAAAAAGGGAAACAAAATGTCAT [XGTACX_negctrl_site34]	9.87 ± 0.028
TTAAAAAAAAAAAAAAGTACACACTTATAAAATATT [XGTACX_site1630]	11.6 ± 0.91
ACCAATAAATATTTGGTGCATACATATATATATATA	10.1 ± 0.27
AATAAATATAAATACACACCCATATATATATATATA [CACACA_site5436]	10.2 ± 0.47
TTTATTTATTAATACACACACACACCCCCACAAAAT [CACACA_site240]	11.4 ± 0.67
TTTTACATATATATATGTACGAAAATGAAAAGGTCA [XGTACX_site5576]	11 ± 0.67
TATTATAATTTTATATGTACACATATATAAATATAT [XGTACX_site4054]	11.4 ± 1.1
AAAGTTACATTCGACACACACATAACAACTAAATAA [CACACA_site3419]	10.2 ± 0.22
TCAAAGAGTAGAAAGGTGCTTATGAACGAGATAATT	9.87 ± 0.12
CTAAATAAAGTTAACACACACATAATATTTATATGT [CACACA_site6368]	9.905 ± 0.007
TACATAAACATTTATACACACATTAGATATACATAT [CACACA_site6329]	10.02 ± 0.071
AACTAAATTTATAATTGTACATTAAAATATGTATTA [XGTACX_site479]	10.8 ± 0.45
TTTTTTAAAACTTCAAAAAGAGCACTTGAATTTTTT [GTGCAC_negctrl_site455]	9.94 ± 0.19

Sequence	gcPBM binding intensity (ln)
ACATATACATTTATATGTACTCATTTATCTTATGTA [XGTACX_site6594]	11.3 ± 0.76
AAATATTACATACACGCACACATTAATATATTTAAA [CACACA_site2603]	10.4 ± 0.25
ACAAGAACAGAACGTACACACACATATATATATATA [CACACA_site9143]	11.3 ± 0.89
ACCTACACAAGCATTAAACACACAAAAGGGATACTT [CACACA_site8273]	10 ± 0.11
ACCTAATTTTTATATTGTACATAATATAATATATAT [XGTACX_site1715]	10.9 ± 0.52
TATGTGATATATTTATCACACATTATATATATATAT [CACACA_site5103]	10.1 ± 0.73
GATTTTCATATTTTTTGTACTTACATTTTTCTATAC [XGTACX_site6002]	11.2 ± 0.66
ATAAAATCTTAATCAACAAACAAACAAAAAAAAAAT [CACACA_negctrl_site1161]	9.87 ± 0.071
ATAAATATATGGTTTCATTATATTAAATTCAATTTA [CACACA_negctrl_site213]	9.79 ± 0.042
TGTTTATTTTTTTTATGTACTTATTTTTTATTGCAT [XGTACX_site719]	11.5 ± 0.79
ATTCATTTTAATATGGGTACATAAAAATAAAAAGAA [XGTACX_site2801]	11.4 ± 0.96
AATATTTAATTCAACACACATACATATTTATTAAAA [CACACA_site2342]	10 ± 0.28
TAATATGAAAAGTGTACACACGCACAGACAAAAAAA [CACACA_site5594]	11.6 ± 0.95
GCATAAATCAGACACACACACATATATAAATATGTA [CACACA_site7187]	9.91 ± 0.099
TACATTTTTATTTTTACACACATATTTATTTATATA [CACACA_site6609]	10.02 ± 0.021
TATGATGATGAATAACGTACAAAAAAATTAATCACC [XGTACX_site6794]	11.1 ± 0.66
AGATAAAATATATACACACACATAAATACGTACAAA [CACACA_site1086]	11.8 ± 1
AACTTCTTTTTTATAACACACAAAATATATATACAA [CACACA_site282]	10.1 ± 0.18
AACTTATTAAGCCCTCCACATTTCTCTACTACAACT [CACACA_negctrl_site1552]	9.955 ± 0.064
